From PMC12136788 come the findings set out here.

The other results are listed elsewhere or left out.

Sequences and labels used below:
T1: UNK ZnF1-3 (human, UniProt Q9C0B0 31-174)
T1 sequence: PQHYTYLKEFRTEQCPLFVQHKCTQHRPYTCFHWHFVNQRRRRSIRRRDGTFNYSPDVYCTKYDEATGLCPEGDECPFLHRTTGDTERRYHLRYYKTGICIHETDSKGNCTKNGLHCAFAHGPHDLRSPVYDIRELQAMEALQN

B1: chr14:89305849:89305850:+_ENSG00000165533_ENST00000346301|hu_hu|motif|central (ssRNA)
RNA: GGGAGUUCUACAGUCCGACGAUCAGCAUUUUCAUCCAGCAUCAUUUCUGCAAUUCCUUCCUGAUCUACAUCAAUUUCAUCGGUGUAUACCAUUUCUGUUAGCGCUCUUGCUUUUAAGAUCCAAGCUGCCUGGUCAUAAGGGGACAACAGAGGAUUGAGCAUCA
B2: chr1:160275524:160275525:-_ENSG00000122218_ENST00000241704|hu_hu|FALSE|FALSE (ssRNA)
RNA: GGGAGUUCUACAGUCCGACGAUCACAUAAAGCAUCCAGUUUGCGGUUACAGAUCACAAUGGCGUGUUUGGCUAGUAGUGCUACAUGUGACAUGUCUGCUGACCAGAUAACGUAUUUCACUUUAGAAAUCUUCACAGAUGCCAGCAACAGAGGAUUGAGCAUCA
B3: chr4:148551591:148551592:-_ENSMUSG00000063077_ENSMUST00000060537|mus_hu|mus_mus_mus_hu_False|1_1 (ssRNA)
RNA: GGGAGUUCUACAGUCCGACGAUCACCUGACAAAAUUAAAUAUCCCUGUAAAUUAGACAAUAAGCAGCAGGCAACAAAGUCUUUGCUUUGGAAUAUGUGCCAGGAAAAGUCAUCUUGUUUUUAGAUCUCAAGAGACACAACCAUCAACAGAGGAUUGAGCAUCA
B4: chr1:172123744:172123745:-_ENSMUSG00000026667_ENSMUST00000150821|mus_hu|FALSE|FALSE (ssRNA)
RNA: GGGAGUUCUACAGUCCGACGAUCAAACGCAUUGUUCACACUUUUUAGGAAUAUAGGAAAGUGGAAAAUAAAAGUUCUUUGCUAUUCAGCAGGAAAGAGUUUAAAAGACUUGAAUGGAAAUCAGAAAUUUAGGGAUUUGAGAAACAACAGAGGAUUGAGCAUCA
B5: 41988903_41989023_1755_CDS_ENSG00000174197_ENST00000570161|human|control|control (ssRNA)
RNA: GGGAGUUCUACAGUCCGACGAUCAUUCUGAUUAGCAUUCACUACCUUUGCGGCUGUUGCAAUCUUAAGCAUAGUUGUUCUCUUUCUGCCCAAGUCCUCUUUUCCUGAAAGUGAGUCUCCAACUGAAUCCUUUGAAUCGUCGAGCAACAGAGGAUUGAGCAUCA
B6: chr9:123232447:123232448:-_ENSG00000136861_ENST00000349780|hu_mus|FALSE|FALSE (ssRNA)
RNA: GGGAGUUCUACAGUCCGACGAUCCAAUUGGAACUGAUUGUGCUCUUCAAGGCAAAUACUCAGAUACGAUGUUUGAUCGCUAUAAAAUGAAAACGGCUCUUCUUCUCGACUCCGAAUCUCACUGAGCUGCUCCUGCAGGGCCUUCAACAGAGGAUUGAGCAUCA

The target in this test is T1, UNK ZnF1-3. Nature of the test: nsRBNS (natural sequence RNA bind-n-seq); RBNS binding buffer (assumed for nsRBNS): 25 mM Tris pH 7.5, 150 mM KCl, 3 mM MgCl2, 0.01% Triton X-100, 500 ug/ml BSA, 20 U/ml SUPERase-In, 4 C; UNK is unkempt and MSI1 is Musashi-1; names of the RNAs are library labels; protein concentration not given here; high values mean tight binding.
B1: the binding signal worked out at 0.982 enrichment R. The result for B2 reads 0.823 enrichment R. The molecule B3 had a binding signal of 1.51 enrichment R. The result for B4 reads 1.86 enrichment R. The result for B5 reads 0.511 enrichment R.

Regarding B6, the binding signal amounted to 0.781 enrichment R.
